Experimental data: PubChem BioAssay AID445 (National Center for Advancing Translational Sciences (NCATS), 2006)
Out of some 110,000 compounds screened, about 40 (0.04%) were called active. The inconclusive results got no clear call from the source; some entries with a clear call stand among them for comparison. Calls come from the whole dose curve; as a rule, active = well fitted curve in the direction sought with a large enough effect in the signal ratio (not every such curve was filed as active); inconclusive = small, poorly fitted or top-dose-only effect, or a change in a side signal; inactive = flat fitted curve, though single readings scatter; the % refers to the signal ratio. Where the call is inconclusive, the potency comes from a doubtful curve fit.

assay: IkB Signaling; details: ABC-DLBCL IkBa-CBG/CBR dual luciferase ratio (green luciferase fused to IkBa over red control in OCI-Ly3 lymphoma cells), 4 h; IkBa stabilization activation: at 57.1 µM (top of the series), scaled: untreated 0%, proteasome inhibitor 100% unless noted;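 for IkBa stabilization activation: 0% = basal untreated cells and 100% = reference inhibitor full response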
Summary of the method: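 In this assay, an IκBα–CBG68 fusion accumulates when IKK-driven degradation is blocked; native CBR normalizes for cell number. OCI-Ly3 cells were treated 4 h with compound and doxycycline, then green and red light read after Chroma-Glo addition.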
Potency is the fitted concentration of half-maximal effect.

| SMILES | IkBa stabilization activation | Potency |
| --- | --- | --- |
| Cc1cc(C)cc(Nc2ncc3c(n2)CCCC3=O)c1 | inactive |  |
| CC1(C)C(=O)NC2=C1C(=O)C(=O)c1ccccc12 | inconclusive: 14.5% [signal inhibitor] |  |
| Cc1nonc1NC(=O)CSc1nc(C2CCCCC2)nc2ccccc12 |  | inconclusive: 15.8 µM [signal inhibitor, partial curve] |
| Cc1ccc(-n2nnc(-c3nsc(NC(=O)c4ccccc4C)n3)c2C)cc1Cl | inactive |  |
| CN(CC(=O)Nc1ccc(F)c(F)c1F)c1cnccn1 | inconclusive: -0.488% [signal inhibitor] |  |
| CCOc1ccc(Nc2c(S(=O)(=O)c3ccc(Cl)cc3)cnc3ccc(OC)cc23)cc1 | inconclusive: 0.114% [signal inhibitor] |  |
| COc1cccc(CN2C(=O)N(c3ccc(C)cc3)C(=O)C2CC(=O)Nc2cc(OC)cc(OC)c2)c1 (configuration not stated) | inactive |  |
| CCOC(=O)CC(NC(=O)CCc1c(C)nc2c(-c3ccccc3)c(C)nn2c1C)c1ccc(C)cc1 (configuration not stated) | inconclusive: -0.248% [signal inhibitor] |  |
| COc1ccc(-c2c3c(=O)n(C)c(=O)n(C)c3cn2-c2cccc(N)c2)cc1 | inconclusive: -1.09% [signal inhibitor] |  |
| Cc1noc(/C=C/N(C)C)c1S(=O)(=O)N1CCN(c2ccccc2)CC1 | inconclusive: 2% [signal inhibitor] |  |
| COc1ccc(Cn2ccc3nc(C)c(C(=O)Nc4ccc(F)cc4)cc3c2=O)cc1 | inconclusive: 4% [signal inhibitor] |  |
| CCn1cc(C(=O)NCCc2ccc(Cl)cc2)c(=O)c2cc(S(=O)(=O)N3CCc4ccccc4C3)ccc21 | inconclusive: 6.8% [signal inhibitor] |  |
| COc1ccccc1NC(=O)c1oc2ccccc2c1NC(=O)C(C)C | inconclusive: 4.79% [signal inhibitor] |  |
| Cc1cccc(NC(=O)CSc2nnc3scc(-c4ccccc4)n23)c1 | inconclusive: -4.69% [signal inhibitor] |  |
| CCOc1ccccc1NC(=O)CCSc1nc2n[nH]c(C)c2c(=N)n1-c1ccccc1Cl | inactive |  |
| O=C1c2ccccc2C(=O)N1Cc1nc(-c2ccccn2)no1 | inconclusive: 13.4% [signal inhibitor] |  |
| O=c1c(N2CCN(c3cccc(C(F)(F)F)c3)CC2)csc2ccccc12 | inconclusive: 6.45% [signal inhibitor] |  |
| Cc1cc(C)cc(Nc2ccc(C(=O)O)cc2N)c1 | inconclusive: 2.32% [signal inhibitor] |  |
| CCCCN1C(=O)C2ON(c3ccccc3C)C(c3ccco3)C2C1=O (configuration not stated) | inconclusive: -0.582% [signal inhibitor] |  |
| CCN(C(=O)c1cnc(N2CCN(c3ncccn3)CC2)c2ccccc12)c1cccc(Cl)c1 | inconclusive: -4.5% [signal inhibitor] |  |
| Cn1c(SCC(N)=O)nc2c([nH]c3ccccc32)c1=O | inconclusive: 3.17% [signal inhibitor] |  |
| O=C(O)c1ccc(Nc2nc(-c3ccccc3)c3cc(Br)ccc3n2)cc1 |  | inconclusive: 0.02 µM [signal inhibitor, full curve, poor fit] |
| N#CC1=C(N)SC(N)=C(C#N)C1c1ccnc2ccccc12 | inactive |  |
| O=S(=O)(CCN(CCS(=O)(=O)C(F)(F)F)CC1CCCO1)C(F)(F)F (configuration not stated) | inconclusive: 0.371% [signal inhibitor] |  |

| SMILES | IkBa stabilization activation | Potency |
| --- | --- | --- |
| O=C(CN(Cc1ccc(F)cc1)S(=O)(=O)c1ccccc1)N1CCCCC1 | inactive |  |
| Cc1cccc(NC(=O)CSc2nc3ccc(NC(=O)COc4ccc(Cl)cc4)cc3s2)c1 | inconclusive: 1.78% [signal inhibitor] |  |
| Cc1c(NC(=O)Cc2ccc(F)cc2)cccc1-c1nc2cccnc2s1 | inconclusive: -2.11% [signal inhibitor] |  |
| Fc1ccc(-c2nc(-c3cccs3)c(-c3cccs3)[nH]2)cc1 | inactive |  |
| O=C(O)c1ccccc1Cl | inactive |  |
| Cc1cccc(NC(=O)c2cc3c(=O)n(Cc4ccco4)ccc3nc2C)c1 | inconclusive: 4.01% [signal inhibitor] |  |
| O=C1CCC(=O)N1c1ccc(CSc2nnnn2C2CCCCC2)cc1 | inactive |  |
| COc1ccc(OC)c(NC(=O)CCN2CCN(c3ccccc3F)CC2)c1 | inactive |  |
| CCOC(=O)CN(C(=O)CSc1nnc(CNc2ccc(F)cc2)o1)c1ccccc1 | inconclusive: 5% [signal inhibitor] |  |
| Cc1cc(C)nc(Nc2ccc(N3CCCC3)cc2)n1 | inactive |  |
| COc1cc(C2CC(=O)c3c([nH]c(C(=O)OCc4ccc(C)cc4)c3C)C2)cc(OC)c1OC (configuration not stated) |  | inconclusive: 6.31 µM [signal inhibitor, single point] |
| COc1cc(NC(=O)c2cc(Cl)ccc2Cl)ccc1NC(=O)c1cc2ccccc2o1 | inconclusive: 0.923% [signal inhibitor] |  |
| COc1ccccc1-c1nnc(C2CCN(C(=O)c3cccc(Cl)c3)CC2)o1 | inconclusive: 1.02% [signal inhibitor] |  |
| CCOC(=O)c1ccccc1NC(=O)Cn1c(=O)n(CCC(=O)N2CCc3ccccc3C2)c(=O)c2ccccc21 | inconclusive: -0.746% [signal inhibitor] |  |
| COCCCNC(=O)c1[nH]c2ccccc2c1Sc1ccc(C)cc1 | inconclusive: -0.372% [signal inhibitor] |  |
| CN(C)c1ccc(CNC(=O)c2cnc3sc(N4CCCC4)nn3c2=O)cc1 | inactive |  |
| Cc1ccccc1NC(=O)Cn1c(=O)n(CCCCCC(=O)NCc2ccccc2Cl)c(=O)c2sccc21 | inactive |  |
| CCS(=O)(=O)N1CCc2cc(C(=O)NCc3ccc(Cl)cc3)ccc21 | inconclusive: 2.93% [signal inhibitor] |  |
| Cc1nc2ncnn2c(N2CCCC(C(=O)Nc3ccc4c(c3)CCC4)C2)c1C (configuration not stated) | inconclusive: 1.91% [signal inhibitor] |  |
| COc1ccc(CCNS(=O)(=O)c2cc(-c3cc(C)no3)ccc2OC)cc1OC | inactive |  |
| Cc1ccc(C)c(Nc2nn3c(=O)c4ccc(C(=O)NCCC5=CCCCC5)cc4nc3s2)c1 | inactive |  |
| O=C(Nc1ccc2nc(-c3cccs3)[nH]c2c1)c1ccco1 | inactive |  |
| CCCn1c(=N)n(CC(O)COc2cccc(C)c2)c2ccccc21 (configuration not stated) | inconclusive: 4.99% [signal inhibitor] |  |
